Data as given in the supplement of paper PMC12217912.
This is one part of the list. Sequences were assembled here from the parent chain. Values near 0.05 are background.

B1: TEV protease; numbered along this chain (parent)
chain: MGESLFKGPRDYNPISSSICHLTNESDGHTTSLYGIGFGPFIITNKHLFRRNNGTLVVQSLHGVFKVKDTTTLQQHLVDGRDMIIIRMPKDFPPFPQKLKFREPQREERICLVTTNFQTKSMSSMVSDTSCTFPSGDGIFWKHWIQTKDGQCGSPLVSTRDGFIVGIHSASNFTNTNNYFTSVPKNFMELLTNQEAQQWVSGWRLNADSVLWGGHKVFMVKPEEPFQPVKEATQL

Variants of: B1
Experiment: raw area under fraction-flipped curve 0-4 h after induction (AUC4h, not background-subtracted), DNA-recorder readout of cleavage of the substrate (dimensionless); higher = more cleavage of the substrate by the protease variant
Conditions: temperature: 34 °C; time window: 0-4 h after rhamnose induction
Method: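 In vivo DNA recorder in E. coli TOP10(DE3) ΔrhaA at 34 °C. Each TEVp single-site mutant (parent TEVp 0) is paired with a single-site variant of the 7-mer TEVs (canonical ENLYFQ|S). The substrate sits between flexible linkers in a Bxb1-sfGFP-TEVs-SsrA fusion, so cleavage stabilises Bxb1 and speeds flipping of a recombination array, read by NGS. The value is the raw area under the fraction-flipped curve over 0-4 h after rhamnose induction (AUC4h), with ≥20 reads per time point. It is not background-subtracted; inactive controls average about 0.047.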
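Note: Bxb1 expression induced with 0.2% (w/v) L-rhamnose at OD600 near 0.5, cultures sampled hourly, flipped fraction per protease–substrate barcode pair counted by paired-end Illumina sequencing.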

Variant	area with substrate ENLYFAS	area with substrate ENLYFCS	area with substrate ENLYFIS	area with substrate ENLYFMS	area with substrate ENLYFNS	area with substrate ENLYFPS	area with substrate ENLYFRS	area with substrate ENLYFWS	area with substrate ENLYFYS	area with substrate ENLYFFS	area with substrate ENLYFHS	area with substrate ENLYFKS	area with substrate ENLYFTS	area with substrate ENLYFDS	area with substrate ENLYFES	area with substrate ENLYFGS	area with substrate ENLYFSS	area with substrate ENLYFVS	area with substrate ENLYFLS
G213P	0.06	0.0491	0.0514	0.0633	0.029	0.0604	0.043	0.0782	0.0471	–	–	–	–	–	–	–	–	–	–
N178L	0.0421	0.0451	0.056	0.0585	0.068	0.0485	0.0562	–	0.0673	0.0782	0.1	0.0636	0.0265	–	–	–	–	–	–
R109N	0.0566	0.0408	–	0.0629	–	0.0764	0.0612	–	–	0.0731	–	0.0555	0.0578	0.0499	0.1	0.0716	0.085	–	–
T129R	0.0704	0.0477	–	0.0617	0.0136	–	0.0661	–	–	–	0.0499	–	–	–	–	0.0299	0.0497	0.0688	–
P94L	0.0455	–	0.0614	0.0605	0.0823	–	–	–	–	0.0599	–	0.0639	–	–	0.0546	–	–	–	–
L211E	0.0637	–	0.0656	0.0656	–	0.0588	0.0651	0.061	–	–	–	0.101	0.0278	0.0618	–	–	0.0519	0.0778	–
R102F	0.0356	0.0323	0.0367	–	0.0453	0.0645	–	–	–	–	0.0343	–	0.0405	–	0.0343	–	0.0308	–	0.0498
Y34M	0.0595	–	0.0574	0.0985	0.071	0.0487	–	0.0592	–	0.0729	0.0559	–	–	0.0713	–	–	0.055	–	–
Q146G	0.0605	0.0462	0.0556	0.0628	0.0596	0.0605	0.0684	–	0.0642	0.0599	–	0.0759	–	0.0683	–	0.0691	0.0606	0.056	–
R51V	0.0508	–	0.0549	0.0692	–	0.0512	0.052	0.0377	0.0754	0.0553	0.0663	0.144	–	–	–	0.0565	–	–	0.0764
R106C	0.057	0.0753	0.0599	0.0736	0.0678	0.0753	–	–	–	0.061	–	0.0663	0.0565	0.0364	0.0619	0.0502	0.0666	0.0645	–
T72L	0.06	–	0.0503	0.0636	–	0.0612	–	0.0526	–	0.0568	–	–	–	–	0.0554	0.0619	–	–	–
K7F	0.0648	0.0619	0.0681	0.0787	0.0684	–	–	–	–	–	0.0705	–	0.0565	–	0.0535	–	–	–	–
L56N	0.035	0.0275	0.0358	0.0372	0.0492	0.0515	0.0491	0.0483	–	0.0342	0.048	–	0.0229	–	0.0474	0.0386	0.0325	–	0.0492
P225Y	0.0488	–	0.0589	0.0684	0.0477	0.0645	–	–	0.0384	0.0846	0.0477	0.047	0.0591	0.0532	0.0758	0.05	0.052	0.063	0.0648
T31M	0.07	0.057	0.0572	0.0544	0.0739	0.0645	0.0499	0.0482	0.0561	–	0.0645	–	0.0736	–	0.0562	0.0633	–	–	0.0616
F95E	0.041	–	0.0502	–	0.0512	0.0436	0.0491	0.0342	–	0.0634	0.0274	0.0515	0.0378	0.0524	0.0552	0.0383	0.0371	0.0461	0.0329
N116I	0.0472	–	0.0363	–	0.055	–	–	–	–	0.0501	0.067	–	–	–	0.06	–	–	–	–
G150M	0.0601	–	0.0633	0.0583	0.0561	0.0531	–	–	–	0.0722	–	0.0623	0.0596	–	–	–	–	0.0525	0.0732
Q146E	0.0699	0.063	0.0496	0.069	0.0749	0.0645	–	0.0467	–	–	0.0664	–	0.0717	–	0.082	–	0.0504	0.0725	–
H143Q	0.0579	–	0.0548	0.0661	0.0578	–	0.0455	0.0651	0.0656	0.0626	0.0573	0.0528	–	0.0552	0.0616	0.0786	0.0584	–	0.0504
S169H	0.055	0.0534	0.059	0.0545	0.0571	0.0525	–	–	0.0568	0.0778	–	–	–	–	0.0562	–	0.0661	–	–
K185D	0.0611	0.0489	0.0569	–	–	–	0.0641	–	–	–	0.0703	–	0.0816	–	–	–	–	0.0531	–
S171N	0.0646	–	0.0595	–	–	0.0592	0.0623	–	0.0615	0.0832	–	0.0619	–	0.0627	0.0611	0.063	–	–	–
Q59S	0.0673	0.0646	–	0.0683	–	0.068	–	0.0531	–	0.0582	0.0734	0.0618	0.0639	–	–	–	0.0387	0.0593	0.06
D82T	0.0495	0.0302	0.0509	0.0542	0.0509	0.0626	–	0.04	0.0497	0.0669	0.0621	0.024	0.049	–	0.0629	0.0461	0.0658	–	0.0426
W203F	0.0526	0.0626	0.0499	0.0506	0.0658	–	0.0664	–	0.0653	–	0.0828	–	–	–	0.052	0.063	–	0.0633	–
T129A	0.0678	–	0.0596	–	–	0.0549	0.055	0.0471	0.072	0.0568	0.0571	–	0.0594	–	0.0632	–	–	–	–
T55W	0.0783	0.0553	0.0606	0.0632	0.0914	0.0604	0.0555	0.0539	0.0517	0.0802	–	0.0532	–	0.0802	0.0646	0.0742	–	–	–
H47T	0.0597	0.0697	0.0696	–	0.0611	–	0.0515	–	0.0715	0.0662	0.0658	0.0551	0.0556	–	0.0615	0.0817	–	0.0512	0.0394
